B1: Hetumomab: mouse monoclonal antibody (IgG1, κ) against human tumor stem cells, hybridoma CGMCC NO. 12251; VL SEQ ID NO:1, VH SEQ ID NO:5 (antibody, V domains shown)
VH: QVTLKESGPGILQPSQTLSLTCSFSGFSLSTSGMGVSWIRQPSGKGLEWLAHIYWDDDKRYNPSLKSRLTISKDSSNNQVFLKITSVDTADTATYYCARSFYYYANNSFAYWGQGTLVTVSS
VL: DIVMTQAAFSNPVTLGTSASISCRSSKSLLHSNGITYLYWFLQKPGQSPQLLIYQMSNLASGVPDRFSSSGSGTDFTLRISRVEAEDVGVYYCAQNLELYTFGGGTKLEIK
modifications: Hetumomab heavy chain variable region; Hetumomab light chain variable region
B2: Hetuximab: human-mouse chimeric antibody derived from Hetumomab; heavy chain SEQ ID NO:9, light chain SEQ ID NO:10 (antibody)
heavy: QVTLKESGPGILQPSQTLSLTCSFSGFSLSTSGMGVSWIRQPSGKGLEWLAHIYWDDDKRYNPSLKSRLTISKDSSNNQVFLKITSVDTADTATYYCARSFYYYANNSFAYWGQGTLVTVSS[human IgG1 constant region left out here]
light: DIVMTQAAFSNPVTLGTSASISCRSSKSLLHSNGITYLYWFLQKPGQSPQLLIYQMSNLASGVPDRFSSSGSGTDFTLRISRVEAEDVGVYYCAQNLELYTFGGGTKLEIKRTVAAPSVFIFPPSDEQLKSGTASVVCLLNNFYPREAKVQWKVDNALQSGNSQESVTEQDSKDSTYSLSSTLTLSKADYEKHKVYACEVTHQGLSSPVTKSFNRGEC
modifications: Hetuximab chimeric antibody heavy chain amino acid sequence; Hetuximab chimeric antibody light chain amino acid sequence

What was measured:
[1] = tested on: antigen protein in SNU-5, BGC-823, MHCC-97L, BEL7402 V13 total proteins; assay: Western Blotting of tumor cell total proteins; format: binding, human; conditions: primary antibody 2 ug/ml
Procedure: Total proteins of 4 kinds of Hetumomab target antigen-positive human tumor cells SNU-5, BGC-823, MHCC-97L, BEL7402 V13 were extracted by conventional methods, and the protein concentrations were quantified by a BCA kit. An appropriate amount of the protein sample (20 μg) was separated by SDS-polyacrylamide gel electrophoresis and transferred to a PVDF membrane using a semi-dry electroporator. The PVDF membrane was then placed in blocking solution (TBST/5% skimmed milk powder) and incubated on a horizontal shaker at room temperature for 1 h. […] The membrane was then rinsed 5 times with TBST for 5 min each. Then the secondary antibody (1:2000 to 1:5000 dilution) against human IgG Fc-HRP or against mouse IgG Fc-HRP was added accordingly and incubated at room temperature for 1 h. The membrane was then rinsed 3 times with TBST for 5 min each, and then rinsed with PBS 3 times. Visualization was conducted.

[2] = tested on: ESA+ stem cells of Bel7402-V13; assay: two-color flow fluorimetry co-staining with ESA; format: binding, human
Text: In order to detect liver cancer stem cells in human liver cancer cell line Bel7402-V13 cells reconginized by monoclonal antibody Hetumomab, which are also ESA and CD90 marker positive, we used two-color flow fluorimetry to stain the human liver cancer cell line Bel7402-V13 cells after culture for 5 days in a serum-free medium.
That is, Hetumomab recognized 40.2% of ESA^+ stem cells. Human liver cancer MHCC97L cells cultured for 5 days in a serum-free medium were stained.

[3] = tested on: Hetumomab target antigen in liver, lung, gastric cancer tissue sections; assay: immunohistochemistry of antigen-positive and negative tissue sections; format: binding, human
[4] = tested on: target antigen of Hetumomab in human lung cancer tissues; assay: immunohistochemistry of lung tissues; format: binding
Text: By using conventional immunohistochemical techniques, the expression of the target antigen of Hetumomab in many human liver cancer, lung cancer, gastric cancer patients and other related tissues was detected by taking Hetumomab as the primary antibody, and the anti-mouse antibody as the secondary antibody.
By using Hetumomab as the primary antibody, the expression of the target antigen of Hetumomab was detected in human lung cancer tissues of 160 cases, para-carcinoma tissues of 32 cases, and normal lung tissues of 3 cases.

[5] = tested on: membrane surface antigens of T3A-A3 and MHCC97L sphere cells; assay: hybridoma screening by cell immunofluorescence; format: binding, human; conditions: T3A-A3 line and MHCC97L sphere cells
Procedure: The serum-free suspension medium was DMEM/F12 (1:1) culture medium containing 20 ng/mL EGF, 20 ng/mL bFGF, B27 added at a ratio of 1:50, 10 ng/mL LIF, 2 mmol/mL glutamine, 1 p/mL Heparin. The cells were washed once before culturing with the serum-free medium. The sphere cells of human liver cancer stem cell (human tumor pluripotent stem cell) line T3A-A3 cultured in the serum-free suspension medium were gently blown into single cells and seeded into a 96-well plate at 2000 cells/well. After culturing for 24 h in the serum-free medium, the cells were washed with PBS containing 1% BSA, and incubated for 2 hours at room temperature after adding 1004 culture supernatant of one hybridoma clone to each well. […] After washing with PBS containing 1% BSA for 5 times, fluorescence microscopy was performed under a fluorescence microscope to determine the reaction of each monoclonal antibody hybridoma supernatant in the monoclonal antibody library with the human liver cancer stem cell (human tumor pluripotent stem cell) line T3A-A3. It can be observed that some cells had fluorescent staining, which made them determined as positive, and mouse monoclonal antibodies capable of binding to the membrane surface antigens of the human liver cancer stem cell (human tumor pluripotent stem cell) line T3A-A3 were initially screened out. […]

[6] = tested on: target antigen of Hetumomab on the surface of living cells; assay: live cell immunofluorescence staining of tumor cell lines; format: binding, human; conditions: MHCC97L, Bel7402-V13, A549, SPCA-1, SNU-5, BGC-823
Procedure: The expression of monoclonal antibody Hetumomab target antigen on the surface of living cells in various human tumor cell lines such as liver cancer, lung cancer and gastric cancer cell lines was detected by conventional viable cell immunofluorescence staining. The specific technical methods are as follows: cells were grown on slides or inoculated in a 96-well culture plate (4×10^3 cells/well) and grown to 60% to 70% of the full plate, then washed with serum-free culture fluid twice, washed with PBS once. Primary antibody (hybridoma supernatant or purified antibody) was added (with mouse anti-α-tublin antibody (dilution: 1:1000) as control for cell permeability, and the normal mouse IgG, SP2/0 supernatant, PBS as negative control), and then incubated at room temperature for 1 h; washed with the live cell washing liquid (PBS containing 1% BSA) for 5 times and 5 min each time, and then fixed for 15 min with 4% paraformaldehyde at room temperature; washed with fix cell washing liquid (PBS containing 0.1% BSA, 0.05% tween-20) for 5 times and 5 min each time. […] Membrane fluorescence staining observed in some cells was deemed as positive.

[7] = 10 negative sections, Example 11
[8] = 10 positive sections, Example 11

| Molecule | Western blot recognition of the antigen protein [1] | Co-staining ratio with ESA ([2]; Bel7402-V13) [%] | share of ESA+ stem cells recognized ([2]; Bel7402-V13) [%] | Hetumomab+ cell ratio ([2]; Bel7402-V13, 5 days serum-free) [%] | staining of negative tissue sections ([3]; 3 negative sections, Example 8) | staining of target antigen-positive tissue sections ([3]; 3 positive sections, Example 8) | staining of negative tissue sections [3, 7] | staining of target antigen-positive tissue sections [3, 8] | Proportion of Positive Cases (%) ([4]; Lung Cancer Para-carcinoma Tissue) | Proportion of Positive Cases (%) ([4]; Lung Cancer Tissue, 160 cases) | Proportion of Positive Cases (%) ([4]; Normal Lung Tissue) | binding to membrane surface antigens of tumor stem cells [5] | target antigen on the surface of living cells [6] |
| --- | --- | --- | --- | --- | --- | --- | --- | --- | --- | --- | --- | --- | --- |
| B1 | specifically bound to the antigen protein | 3.63 | 40.2 | 8.52 | failed to stain | positively stain | did not stain | positively stain | 6.25 | 82.5 | 0 | bound to the membrane surface antigens | expressed on the surface of living cells |
| B2 | specifically bound to the antigen protein |  |  |  | failed to stain | positively stain | did not stain | positively stain |  |  |  |  |  |
